Values marked as one replicate rest on one cluster of the flow cell; about a third of the high ones do not repeat.
The sequences below were run on ATP (assay: switch fluorescence ratio, 500 uM ATP over buffer (Cy3 cluster intensity, sum of 5 cycles each) (fold (ratio)); higher = stronger signal-on switching upon ATP binding; sequences stand for … in TCGTCGGCAGCGTCAGATGTGTATAAGAGACAGTTTTTTTTTTTTTTTTTTTTTTTTT…TC). Settings: aptamer strand: ATP DNA aptamer (quencher-CACCTGGGGGAGTATTGCGGAGGAAGG + anchor), 100 nM annealed; ATP concentration: 500 uM; one replicate.
Outline: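 Cy3-labelled switching-strand clusters on a modified Illumina MiSeq flow-cell were annealed to 100 nM quencher-labelled ATP aptamer, imaged in selection buffer, then imaged after 15 min with 500 uM ATP at 22 °C. Five buffer/ATP cycles ran, with NaOH stripping and re-annealing between them. The fluorescence ratio is summed target-cycle over summed buffer-cycle Cy3 intensity per cluster, averaged per switch-domain sequence. Clusters outside 100-1000 RFU were excluded.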
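Note: ATP exposure 15 min at 22 °C before imaging.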

Sequence	switch fluorescence ratio
CAGTTCGCAC	1.41
CAGTTCGCGT	1.02
CAGTTGAAAT	0.985
CAGTTGTGGA	1.01
CAGTTGTGTT	0.997
CAGTTTGAGG	0.942
CAGTTTGATA	0.994
CAGTTTTCGT	1.03
CATAAAAC	0.996
CATAAACAAA	0.972
CATAAACGTA	0.959
CATAAATCCT	1.15
CATAAGATTT	1.06
CATAAGGAGG	0.978
CATAATCAGA	0.986
CATAATTAAC	1.04
CATACAAAAA	1.09
CATACGACCT	1.59
CATACTAACT	1.08
CATACTGTTC	0.998
CATAGACGGA	1.04
CATAGCAGTG	1.05

Sequence	switch fluorescence ratio
CATAGCTGCA	1.04
CATAGTGAGT	0.915
CATATAAGAG	0.981
CATATACTTA	1.07
CATATATTTG	1.05
CATATGAAGA	1.05
CATATGGCAG	1.01
CATATGGCGT	0.983
CATATGGTGT	0.991
CATATGTATA	1.01
CATATTCCAT	1.05
CATATTCGAT	0.963
CATATTTTCT	1.01
CATCAAAGTG	1.04
CATCAATGTT	1
CATCCAAATA	1.13
CATCCAGCTA	5.86
CATCCCATTA	1.74
CATCCCTACT	2.94
CATCCTTAAC	1.28
CATCGACCTA	1.01
CATCGCTAGT	1.05

Sequence	switch fluorescence ratio
CATCGCTCAG	1.03
CATCGTGAAG	0.997
CATCGTGATC	1.51
CATCGTTGCA	0.981
CATCGTTTGA	1.01
CATCTACGGT	0.994
CATCTATGCT	1.01
CATCTCATGT	0.989
CATCTCCATA	1.01
CATCTGTTCG	0.984
CATCTTATG	1.05
CATCTTCGCC	1.12
CATGACTCGA	1.01
CATGAGATGC	1.05
CATGATTAAG	1.02
CATGCACTCT	1.03
CATGCCATTT	0.989
CATGCGAGAA	0.997
CATGCGCCGG	1.04
CATGCGGATT	1
CATGCTTCCT	1.23
CATGGAAAG	1.04

Sequence	switch fluorescence ratio
CATGGGTACT	0.976
CATGGGTGGT	1.06
CATGGGTGTC	1.04
CATGGTCGTT	1.04
CATGTCGGTC	1.05
CATGTTAAGG	1
CATGTTACGC	1.06
CATGTTTGA	0.981
CATTAAATGC	1.08
CATTAAGAAA	1.02
CATTACTCTC	1.07
CATTACTTCG	1.08
CATTAGAGAA	1.02
CATTAGCGGC	1.05
CATTAGTTAA	1.01
CATTCAAGGC	1.07
CATTCAATGG	1.07
CATTCAGGGT	1.01
CATTCGAAGT	1.01

From the supplement of paper PMC10126150
